Among the targets are CaVβ3–c-Myc (rat) (UniProt P54287); CaV1.2 D181G (rabbit) (UniProt P15381); CaV1.2 D180A (rabbit) (UniProt P15381); CaV1.2 E179A (rabbit) (UniProt P15381); CaV1.2 R1119A (rabbit) (UniProt P15381); CaV1.2 WT (rabbit) (UniProt P15381); CaV1.2 D181E (rabbit) (UniProt P15381); CaV1.2 D181R (rabbit) (UniProt P15381).
What all share (assay): co-IP; HEKT cells co-transfected with CaVβ3–c-Myc, CaV1.2 WT or mutant and mCherry–CaVα2δ1–HA; homogenised in 20 mM NaMOPS pH 7.4, 300 mM NaCl, 1% digitonin; overnight with anti-c-Myc magnetic beads to capture CaVβ3; washed in 0.2% digitonin; blots with anti-CaV1.2, anti-CaVα2δ1 (1, 20 and 200 s exposures) and anti-CaVβ3
For experiment [1], the target named is CaV1.2–HA (Glu-331) (rabbit) (UniProt P15381).
In experiment [2] the target is CaV1.2–HA (Asp-710) (rabbit) (UniProt P15381).

The chains behind the UniProt entries cited, without tags or fusion partners. Where a name states a change or a piece, a line headed by the entry shows the natural chain unless it says otherwise. A line that says so, or that is headed by a name, gives the form on record, which may keep a tag or linker.
UniProt P15381: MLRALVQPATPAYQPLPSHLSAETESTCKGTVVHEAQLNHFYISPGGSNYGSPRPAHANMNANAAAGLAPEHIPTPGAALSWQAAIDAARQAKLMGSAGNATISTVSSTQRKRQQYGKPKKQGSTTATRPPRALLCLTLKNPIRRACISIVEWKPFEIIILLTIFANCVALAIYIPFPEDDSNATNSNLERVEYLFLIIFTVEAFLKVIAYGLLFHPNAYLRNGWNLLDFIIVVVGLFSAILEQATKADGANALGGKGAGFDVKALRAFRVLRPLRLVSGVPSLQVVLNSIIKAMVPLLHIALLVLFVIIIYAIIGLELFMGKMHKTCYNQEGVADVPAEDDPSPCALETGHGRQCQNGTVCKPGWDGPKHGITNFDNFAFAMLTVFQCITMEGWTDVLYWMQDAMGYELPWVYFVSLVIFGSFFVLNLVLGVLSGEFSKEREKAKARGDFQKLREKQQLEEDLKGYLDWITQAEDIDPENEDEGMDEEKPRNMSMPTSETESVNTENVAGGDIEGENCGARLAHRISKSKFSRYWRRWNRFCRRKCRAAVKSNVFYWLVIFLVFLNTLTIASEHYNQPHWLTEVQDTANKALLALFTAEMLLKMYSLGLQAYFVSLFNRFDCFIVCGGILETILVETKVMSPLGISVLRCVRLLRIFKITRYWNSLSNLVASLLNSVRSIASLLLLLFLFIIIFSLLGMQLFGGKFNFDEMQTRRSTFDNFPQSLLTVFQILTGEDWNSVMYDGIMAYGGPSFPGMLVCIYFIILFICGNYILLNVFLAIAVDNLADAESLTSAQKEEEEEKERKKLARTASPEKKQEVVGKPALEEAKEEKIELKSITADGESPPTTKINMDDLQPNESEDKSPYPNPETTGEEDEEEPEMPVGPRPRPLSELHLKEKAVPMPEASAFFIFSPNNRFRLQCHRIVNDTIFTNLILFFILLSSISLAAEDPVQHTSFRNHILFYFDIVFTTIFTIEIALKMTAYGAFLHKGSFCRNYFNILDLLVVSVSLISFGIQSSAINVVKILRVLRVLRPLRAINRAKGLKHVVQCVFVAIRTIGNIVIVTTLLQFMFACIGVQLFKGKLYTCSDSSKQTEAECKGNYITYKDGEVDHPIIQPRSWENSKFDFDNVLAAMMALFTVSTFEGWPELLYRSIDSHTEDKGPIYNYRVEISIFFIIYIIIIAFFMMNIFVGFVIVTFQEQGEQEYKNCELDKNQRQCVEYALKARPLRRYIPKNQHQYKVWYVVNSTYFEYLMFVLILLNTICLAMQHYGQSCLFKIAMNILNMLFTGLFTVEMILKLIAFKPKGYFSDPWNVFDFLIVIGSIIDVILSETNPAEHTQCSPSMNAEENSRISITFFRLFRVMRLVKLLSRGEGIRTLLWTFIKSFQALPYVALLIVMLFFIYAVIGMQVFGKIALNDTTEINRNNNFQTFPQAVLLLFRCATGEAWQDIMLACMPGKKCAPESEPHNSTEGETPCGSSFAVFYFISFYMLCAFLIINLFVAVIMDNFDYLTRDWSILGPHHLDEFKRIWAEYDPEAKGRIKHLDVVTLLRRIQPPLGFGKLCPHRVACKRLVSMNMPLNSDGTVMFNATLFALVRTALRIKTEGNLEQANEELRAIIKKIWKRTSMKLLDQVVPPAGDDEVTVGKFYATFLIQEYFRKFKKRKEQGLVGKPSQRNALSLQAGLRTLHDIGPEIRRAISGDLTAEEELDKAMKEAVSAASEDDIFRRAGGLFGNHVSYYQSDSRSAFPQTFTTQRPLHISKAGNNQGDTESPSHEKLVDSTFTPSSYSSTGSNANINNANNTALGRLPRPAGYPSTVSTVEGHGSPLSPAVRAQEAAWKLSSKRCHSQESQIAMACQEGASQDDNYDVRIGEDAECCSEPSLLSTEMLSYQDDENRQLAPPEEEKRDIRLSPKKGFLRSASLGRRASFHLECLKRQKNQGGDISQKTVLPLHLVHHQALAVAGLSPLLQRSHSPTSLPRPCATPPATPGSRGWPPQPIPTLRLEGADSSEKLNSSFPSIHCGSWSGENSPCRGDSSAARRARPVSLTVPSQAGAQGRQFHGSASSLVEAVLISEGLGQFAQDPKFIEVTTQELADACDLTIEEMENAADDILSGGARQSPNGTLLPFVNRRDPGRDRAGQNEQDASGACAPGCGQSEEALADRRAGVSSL
CaV1.2–HA (Asp-710) (P15381, form named): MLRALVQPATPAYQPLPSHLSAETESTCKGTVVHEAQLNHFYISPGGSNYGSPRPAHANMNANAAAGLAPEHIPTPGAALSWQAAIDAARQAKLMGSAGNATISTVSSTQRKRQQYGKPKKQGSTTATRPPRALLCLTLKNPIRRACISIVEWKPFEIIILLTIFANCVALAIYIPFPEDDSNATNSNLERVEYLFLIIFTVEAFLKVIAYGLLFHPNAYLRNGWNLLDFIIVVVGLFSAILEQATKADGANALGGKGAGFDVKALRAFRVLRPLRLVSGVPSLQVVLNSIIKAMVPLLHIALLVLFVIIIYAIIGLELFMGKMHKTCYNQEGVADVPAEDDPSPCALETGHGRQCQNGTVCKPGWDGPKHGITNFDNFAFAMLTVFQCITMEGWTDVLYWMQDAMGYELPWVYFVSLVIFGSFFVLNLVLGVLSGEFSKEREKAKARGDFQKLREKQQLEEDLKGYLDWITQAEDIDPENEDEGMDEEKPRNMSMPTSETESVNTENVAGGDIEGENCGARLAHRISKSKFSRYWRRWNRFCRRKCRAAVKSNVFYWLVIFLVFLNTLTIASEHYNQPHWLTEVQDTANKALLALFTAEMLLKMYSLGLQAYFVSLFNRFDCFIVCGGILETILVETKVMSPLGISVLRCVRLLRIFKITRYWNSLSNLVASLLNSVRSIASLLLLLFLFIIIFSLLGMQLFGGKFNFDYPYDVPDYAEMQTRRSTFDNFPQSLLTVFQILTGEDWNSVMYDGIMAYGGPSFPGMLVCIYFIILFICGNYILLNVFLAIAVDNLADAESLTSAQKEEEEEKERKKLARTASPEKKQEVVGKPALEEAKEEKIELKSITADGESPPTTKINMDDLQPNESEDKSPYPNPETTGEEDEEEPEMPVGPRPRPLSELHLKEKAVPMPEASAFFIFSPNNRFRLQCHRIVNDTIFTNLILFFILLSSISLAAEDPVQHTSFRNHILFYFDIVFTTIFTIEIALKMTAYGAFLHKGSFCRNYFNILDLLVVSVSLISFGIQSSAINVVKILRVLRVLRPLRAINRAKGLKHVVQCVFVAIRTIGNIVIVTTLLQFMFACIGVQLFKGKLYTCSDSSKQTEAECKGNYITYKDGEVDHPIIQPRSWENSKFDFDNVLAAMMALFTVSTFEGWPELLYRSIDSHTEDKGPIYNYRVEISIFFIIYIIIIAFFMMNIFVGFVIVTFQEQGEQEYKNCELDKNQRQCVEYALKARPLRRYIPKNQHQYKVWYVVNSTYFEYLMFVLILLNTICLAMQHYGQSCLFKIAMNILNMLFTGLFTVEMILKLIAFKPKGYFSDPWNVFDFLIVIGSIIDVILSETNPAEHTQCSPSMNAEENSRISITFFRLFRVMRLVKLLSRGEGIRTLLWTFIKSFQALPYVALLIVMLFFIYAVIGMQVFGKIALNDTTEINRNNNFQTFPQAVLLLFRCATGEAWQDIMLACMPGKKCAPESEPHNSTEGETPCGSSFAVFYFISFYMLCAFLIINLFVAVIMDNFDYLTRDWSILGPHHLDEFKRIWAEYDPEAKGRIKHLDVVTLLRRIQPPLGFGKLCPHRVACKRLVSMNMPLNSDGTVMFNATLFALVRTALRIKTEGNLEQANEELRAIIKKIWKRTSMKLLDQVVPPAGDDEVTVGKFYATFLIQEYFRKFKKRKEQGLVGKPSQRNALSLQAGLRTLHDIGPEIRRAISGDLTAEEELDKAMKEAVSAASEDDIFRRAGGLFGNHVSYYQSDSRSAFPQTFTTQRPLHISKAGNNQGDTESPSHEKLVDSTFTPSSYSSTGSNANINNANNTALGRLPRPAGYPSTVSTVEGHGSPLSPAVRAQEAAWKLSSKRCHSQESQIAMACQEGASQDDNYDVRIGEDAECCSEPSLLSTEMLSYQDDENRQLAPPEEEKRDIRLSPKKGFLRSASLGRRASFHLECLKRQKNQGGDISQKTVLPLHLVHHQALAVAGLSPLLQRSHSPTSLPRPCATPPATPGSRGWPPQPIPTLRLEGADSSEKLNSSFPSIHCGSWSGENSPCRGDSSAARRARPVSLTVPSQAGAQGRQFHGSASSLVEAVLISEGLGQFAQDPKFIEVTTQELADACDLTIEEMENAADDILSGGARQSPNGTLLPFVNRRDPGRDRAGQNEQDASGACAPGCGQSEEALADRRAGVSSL
CaV1.2–HA (Glu-331) (P15381, form named): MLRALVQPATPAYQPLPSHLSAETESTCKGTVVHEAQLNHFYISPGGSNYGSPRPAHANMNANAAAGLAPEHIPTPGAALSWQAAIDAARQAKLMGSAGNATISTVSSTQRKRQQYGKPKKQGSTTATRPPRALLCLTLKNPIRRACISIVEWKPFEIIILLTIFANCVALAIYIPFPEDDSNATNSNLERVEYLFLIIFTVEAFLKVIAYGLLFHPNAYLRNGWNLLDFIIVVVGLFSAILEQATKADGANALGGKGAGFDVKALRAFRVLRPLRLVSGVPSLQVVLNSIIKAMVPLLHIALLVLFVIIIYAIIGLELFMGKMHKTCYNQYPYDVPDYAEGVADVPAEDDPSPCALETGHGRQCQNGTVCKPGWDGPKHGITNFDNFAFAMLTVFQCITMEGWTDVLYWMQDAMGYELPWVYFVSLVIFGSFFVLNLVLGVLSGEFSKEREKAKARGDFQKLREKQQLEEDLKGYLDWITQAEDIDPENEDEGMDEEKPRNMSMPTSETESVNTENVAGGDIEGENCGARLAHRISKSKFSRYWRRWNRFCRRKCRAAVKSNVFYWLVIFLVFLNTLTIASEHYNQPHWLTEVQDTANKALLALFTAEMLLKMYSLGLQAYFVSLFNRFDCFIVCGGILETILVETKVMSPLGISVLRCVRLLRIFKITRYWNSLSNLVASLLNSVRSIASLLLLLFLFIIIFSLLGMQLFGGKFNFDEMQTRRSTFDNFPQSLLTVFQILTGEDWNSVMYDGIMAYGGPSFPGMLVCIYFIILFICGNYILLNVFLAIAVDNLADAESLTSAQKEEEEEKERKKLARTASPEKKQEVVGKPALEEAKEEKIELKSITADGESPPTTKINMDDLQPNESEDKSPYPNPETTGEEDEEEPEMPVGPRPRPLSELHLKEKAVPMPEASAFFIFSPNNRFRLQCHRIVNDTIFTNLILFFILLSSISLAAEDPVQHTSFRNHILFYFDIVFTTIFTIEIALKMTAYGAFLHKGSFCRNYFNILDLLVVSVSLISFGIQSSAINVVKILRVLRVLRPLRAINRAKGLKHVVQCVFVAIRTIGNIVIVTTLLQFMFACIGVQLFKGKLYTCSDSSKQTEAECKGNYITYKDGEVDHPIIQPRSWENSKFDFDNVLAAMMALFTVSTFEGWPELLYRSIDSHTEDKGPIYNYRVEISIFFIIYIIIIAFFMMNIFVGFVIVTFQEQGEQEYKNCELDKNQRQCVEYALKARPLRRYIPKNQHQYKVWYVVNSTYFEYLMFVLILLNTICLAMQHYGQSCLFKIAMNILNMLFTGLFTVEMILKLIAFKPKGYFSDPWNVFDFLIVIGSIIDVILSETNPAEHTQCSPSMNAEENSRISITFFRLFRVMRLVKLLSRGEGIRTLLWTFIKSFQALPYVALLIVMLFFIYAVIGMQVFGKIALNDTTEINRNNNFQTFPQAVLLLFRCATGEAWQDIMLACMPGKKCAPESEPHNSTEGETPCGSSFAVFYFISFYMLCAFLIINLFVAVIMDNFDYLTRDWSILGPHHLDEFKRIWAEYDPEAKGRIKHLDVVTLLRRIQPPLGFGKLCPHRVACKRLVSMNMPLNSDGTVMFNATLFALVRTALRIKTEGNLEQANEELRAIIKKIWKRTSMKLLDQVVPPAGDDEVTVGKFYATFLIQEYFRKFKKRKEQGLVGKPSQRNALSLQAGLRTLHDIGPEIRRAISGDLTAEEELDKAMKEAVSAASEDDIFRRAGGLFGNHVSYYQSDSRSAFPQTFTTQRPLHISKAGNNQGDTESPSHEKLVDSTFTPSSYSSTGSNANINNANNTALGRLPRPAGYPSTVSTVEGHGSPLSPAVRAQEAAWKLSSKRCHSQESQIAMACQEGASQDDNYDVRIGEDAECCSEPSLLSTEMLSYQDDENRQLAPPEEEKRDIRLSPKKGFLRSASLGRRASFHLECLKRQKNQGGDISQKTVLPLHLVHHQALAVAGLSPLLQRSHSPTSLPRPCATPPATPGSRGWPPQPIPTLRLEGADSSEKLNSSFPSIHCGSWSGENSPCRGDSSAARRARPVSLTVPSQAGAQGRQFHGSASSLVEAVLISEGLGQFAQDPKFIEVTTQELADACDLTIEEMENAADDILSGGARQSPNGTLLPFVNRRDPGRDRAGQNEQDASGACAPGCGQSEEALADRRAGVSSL

These are yes or no findings as the source states them, for the method shown. In cells and extracts the contact can be indirect. Some results given as binding are weak or reduced against the parent protein; the word gives no strength.

For the substance “CaV1.2 D180A (from UniProt P15381 1-2171)”, in the experiment with CaVβ3–c-Myc (rat), the binding result was “binds”. On the same count and under the same terms, with “CaV1.2 D180E (from UniProt P15381 1-2171)” the entry was “binds”; with “CaV1.2 D181A (from UniProt P15381 1-2171)”, “binds”; with “CaV1.2 D181E (from UniProt P15381 1-2171)”, “binds”. Still for that read-out and setting: with “CaV1.2 E179A (from UniProt P15381 1-2171)” the entry was “binds”; with CaV1.2 WT (from UniProt P15381 1-2171), “binds”; with “CaV1.2–HA (Asp-710) (from UniProt P15381 1-2171)”, “binds”. The same measure, in the same setting: with “CaV1.2–HA (Glu-331) (from UniProt P15381 1-2171)” the entry was “binds”. Regarding “CaV1.2–HA (Ser-182) (from UniProt P15381 1-2171)”, the binding entry in the experiment with CaVβ3–c-Myc (rat) was “binds”. Consider “mCherry–CaVα2δ1–HA (from UniProt P54290 25-1091)”, for which the binding entry in the experiment with CaV1.2 D181G (rabbit) was “no binding”; in experiment [1] it was “binds”; in the experiment with CaV1.2 D180A (rabbit), “binds”; with CaV1.2 E179A (rabbit) it was “binds”; with CaV1.2 R1119A (rabbit), “binds”; with CaV1.2 WT (rabbit), “binds”. Besides, the binding entry in [2] is “binds”; in the experiment with CaV1.2 D181E (rabbit), “binds”; with CaV1.2 D181R (rabbit), “no binding”.

The record behind these values is article PMC5655503.
